According to the supplement of paper PMC9151546:
Many values rest on one well or one pass, so single values are uncertain.

Assays:
[1] = system: CHO-K1; experiment: micronucleus frequency (% of nucleated events); higher = more micronuclei (genotoxic)
[2] = system: CHO-K1; experiment: hypodiploid nuclei frequency (% of nucleated events); higher = more hypodiploid events (aneugenic)
Experimental: (§1)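 Flow-cytometric in vitro micronucleus assay (Litron MicroFlow) in CHO-K1 cells in 96-well plates, 19 concentrations (4.5-200 µM, n=1 per concentration). Without S9, cells were exposed for 24 h and sampled at 48 h. With Aroclor 1254-induced rat liver S9, cells were exposed for 3-4 h and sampled at 27-28 h. Read-outs are %MN and %hypodiploid nuclei relative to nucleated events, and relative survival as the nuclei-to-bead ratio versus the 1% DMSO vehicle control (x100).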

[3] = system: CHO-K1; experiment: relative survival (nuclei to bead ratio vs DMSO control) (% of vehicle control); higher = more surviving cells
Experimental: as §1
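Throughout, for hypodiploid nuclei frequency (% of nucleated events): hypodiploid nuclei gated on a flow cytometer with 488 nm excitation after SYTOX Green staining, cultures at 37 °C, positive controls vinblastine without S9 and cyclophosphamide with S9.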
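Throughout, for micronucleus frequency (% of nucleated events): cells lysed with nuclei stained by SYTOX Green, then micronucleus-gated events counted against nucleated events by flow cytometry with 488 nm excitation.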
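Throughout, for relative survival (nuclei to bead ratio vs DMSO control): Lysed-cell nuclei stained with SYTOX Green and counted against counting beads by flow cytometry at 488 nm excitation, with vinblastine (no S9) and cyclophosphamide (plus S9) as positive controls.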

C[C@]12CC[C@@H]3c4ccc(O)cc4CC[C@H]3[C@@H]1CC[C@@H]2O [17beta-Estradiol]
Conditions	hypodiploid nuclei frequency, [2] [%]	micronucleus frequency, [1] [%]	relative survival, [3]
concentration: 4.5 (µM), S9 metabolic activation: with S9, exposure time: 3-4 hours	0.1	1.64	188
concentration: 4.5 (µM), S9 metabolic activation: without S9, exposure time: 24 hours	0.9	1.62	122
concentration: 5.63 (µM), S9 metabolic activation: with S9, exposure time: 3-4 hours	0.24	1.48	159
concentration: 5.63 (µM), S9 metabolic activation: without S9, exposure time: 24 hours	1	2.44	104
concentration: 7.04 (µM), S9 metabolic activation: with S9, exposure time: 3-4 hours	0.24	1.36	138
concentration: 7.04 (µM), S9 metabolic activation: without S9, exposure time: 24 hours	1.24	1.98	96.7
concentration: 8.8 (µM), S9 metabolic activation: with S9, exposure time: 3-4 hours	0.24	1.4	128
concentration: 8.8 (µM), S9 metabolic activation: without S9, exposure time: 24 hours	1.1	1.94	99.5
concentration: 11 (µM), S9 metabolic activation: with S9, exposure time: 3-4 hours	0.18	1.14	137
concentration: 11 (µM), S9 metabolic activation: without S9, exposure time: 24 hours	1.36	3.48	85.6
concentration: 13.7 (µM), S9 metabolic activation: with S9, exposure time: 3-4 hours	0.16	1.16	151
concentration: 13.7 (µM), S9 metabolic activation: without S9, exposure time: 24 hours	1.96	3.38	87
concentration: 17.2 (µM), S9 metabolic activation: with S9, exposure time: 3-4 hours	0.18	1.68	118
concentration: 17.2 (µM), S9 metabolic activation: without S9, exposure time: 24 hours	3.14	5.74	89.3
concentration: 21.5 (µM), S9 metabolic activation: with S9, exposure time: 3-4 hours	0.16	1.68	99.8
concentration: 21.5 (µM), S9 metabolic activation: without S9, exposure time: 24 hours	5.26	8.82	102
concentration: 26.8 (µM), S9 metabolic activation: with S9, exposure time: 3-4 hours	0.16	1.44	179
concentration: 26.8 (µM), S9 metabolic activation: without S9, exposure time: 24 hours	17.3	12.6	60.9
concentration: 33.6 (µM), S9 metabolic activation: with S9, exposure time: 3-4 hours	0.24	1.68	151
concentration: 33.6 (µM), S9 metabolic activation: without S9, exposure time: 24 hours	17.2	15.4	87
concentration: 41.9 (µM), S9 metabolic activation: with S9, exposure time: 3-4 hours	0.14	1.56	143
concentration: 41.9 (µM), S9 metabolic activation: without S9, exposure time: 24 hours	25.2	23	65.1
concentration: 52.4 (µM), S9 metabolic activation: with S9, exposure time: 3-4 hours	0.36	1	109
concentration: 52.4 (µM), S9 metabolic activation: without S9, exposure time: 24 hours	29.3	27.4	48.8
concentration: 65.5 (µM), S9 metabolic activation: with S9, exposure time: 3-4 hours	0.38	1.32	108
concentration: 65.5 (µM), S9 metabolic activation: without S9, exposure time: 24 hours	–	–	39.5
concentration: 81.9 (µM), S9 metabolic activation: with S9, exposure time: 3-4 hours	0.42	1.2	86.2
concentration: 81.9 (µM), S9 metabolic activation: without S9, exposure time: 24 hours	–	–	33.7
concentration: 102 (µM), S9 metabolic activation: with S9, exposure time: 3-4 hours	0.28	1.74	83.2
concentration: 102 (µM), S9 metabolic activation: without S9, exposure time: 24 hours	–	–	36.9
concentration: 128 (µM), S9 metabolic activation: with S9, exposure time: 3-4 hours	0.26	1.84	86.2
concentration: 128 (µM), S9 metabolic activation: without S9, exposure time: 24 hours	–	–	34.4
concentration: 160 (µM), S9 metabolic activation: with S9, exposure time: 3-4 hours	0.26	1.44	86
concentration: 160 (µM), S9 metabolic activation: without S9, exposure time: 24 hours	–	–	33.4
concentration: 200 (µM), S9 metabolic activation: with S9, exposure time: 3-4 hours	0.18	1.7	104
concentration: 200 (µM), S9 metabolic activation: without S9, exposure time: 24 hours	–	–	31.2

c1cc2c3c(cccc3c1)CC2 [Acenaphthene]
Conditions	hypodiploid nuclei frequency, [2] [%]	micronucleus frequency, [1] [%]	relative survival, [3]
concentration: 4.5 (µM), S9 metabolic activation: with S9, exposure time: 3-4 hours	0.26	1.42	126
concentration: 4.5 (µM), S9 metabolic activation: without S9, exposure time: 24 hours	0.44	2.72	121
concentration: 5.63 (µM), S9 metabolic activation: with S9, exposure time: 3-4 hours	0.24	1.74	110
concentration: 5.63 (µM), S9 metabolic activation: without S9, exposure time: 24 hours	0.44	1.88	163
concentration: 7.04 (µM), S9 metabolic activation: with S9, exposure time: 3-4 hours	0.22	1.3	122
concentration: 7.04 (µM), S9 metabolic activation: without S9, exposure time: 24 hours	0.46	1.38	131
concentration: 8.8 (µM), S9 metabolic activation: with S9, exposure time: 3-4 hours	0.36	1.46	112
concentration: 8.8 (µM), S9 metabolic activation: without S9, exposure time: 24 hours	0.4	1.88	126
concentration: 11 (µM), S9 metabolic activation: with S9, exposure time: 3-4 hours	0.28	1.84	118
concentration: 11 (µM), S9 metabolic activation: without S9, exposure time: 24 hours	0.62	1.52	157
concentration: 13.7 (µM), S9 metabolic activation: with S9, exposure time: 3-4 hours	0.14	1.08	94.2
concentration: 13.7 (µM), S9 metabolic activation: without S9, exposure time: 24 hours	0.38	1.52	133
concentration: 17.2 (µM), S9 metabolic activation: with S9, exposure time: 3-4 hours	0.22	1.06	101
concentration: 17.2 (µM), S9 metabolic activation: without S9, exposure time: 24 hours	0.58	2.52	119
concentration: 21.5 (µM), S9 metabolic activation: with S9, exposure time: 3-4 hours	0.2	1.1	119
concentration: 21.5 (µM), S9 metabolic activation: without S9, exposure time: 24 hours	0.44	1.7	92.8
concentration: 26.8 (µM), S9 metabolic activation: with S9, exposure time: 3-4 hours	0.18	1.26	119
concentration: 26.8 (µM), S9 metabolic activation: without S9, exposure time: 24 hours	0.64	1.68	110
concentration: 33.6 (µM), S9 metabolic activation: with S9, exposure time: 3-4 hours	0.28	1.16	141
concentration: 33.6 (µM), S9 metabolic activation: without S9, exposure time: 24 hours	0.38	2	116
concentration: 41.9 (µM), S9 metabolic activation: with S9, exposure time: 3-4 hours	0.18	1.34	143
concentration: 41.9 (µM), S9 metabolic activation: without S9, exposure time: 24 hours	0.74	2.5	112
concentration: 52.4 (µM), S9 metabolic activation: with S9, exposure time: 3-4 hours	0.28	1.9	143
concentration: 52.4 (µM), S9 metabolic activation: without S9, exposure time: 24 hours	0.74	2.86	118
concentration: 65.5 (µM), S9 metabolic activation: with S9, exposure time: 3-4 hours	0.28	1.82	122
concentration: 65.5 (µM), S9 metabolic activation: without S9, exposure time: 24 hours	0.38	1.92	128
concentration: 81.9 (µM), S9 metabolic activation: with S9, exposure time: 3-4 hours	0.28	2.12	90.2
concentration: 81.9 (µM), S9 metabolic activation: without S9, exposure time: 24 hours	0.6	2.36	123
concentration: 102 (µM), S9 metabolic activation: with S9, exposure time: 3-4 hours	0.38	2.92	88.3
concentration: 102 (µM), S9 metabolic activation: without S9, exposure time: 24 hours	0.48	3.1	121
concentration: 128 (µM), S9 metabolic activation: with S9, exposure time: 3-4 hours	0.97	17.7	46.5
concentration: 128 (µM), S9 metabolic activation: without S9, exposure time: 24 hours	0.76	2.46	118
concentration: 160 (µM), S9 metabolic activation: with S9, exposure time: 3-4 hours	–	–	35.9
concentration: 160 (µM), S9 metabolic activation: without S9, exposure time: 24 hours	0.78	3	105
concentration: 200 (µM), S9 metabolic activation: without S9, exposure time: 24 hours	0.7	3.16	101
